The supplement of paper PMC3334620
The full ranking holds about 33,000 sequences; the median of “E-score (-0.5 to 0.5)” is about -0.011, and the highest 2% start at about 0.28. The list shows a part of the results.

Each sequence was assayed against T1, Gcr1 (UniProt P07261) (assay: PBM E-score (8-mer binding enrichment) (E-score (-0.5 to 0.5)); higher = stronger / more preferred TF binding; most listed sequences are background and not binding sites). Details: protein concentration: 100 nM; construct: GST-full length.
T1 sequence: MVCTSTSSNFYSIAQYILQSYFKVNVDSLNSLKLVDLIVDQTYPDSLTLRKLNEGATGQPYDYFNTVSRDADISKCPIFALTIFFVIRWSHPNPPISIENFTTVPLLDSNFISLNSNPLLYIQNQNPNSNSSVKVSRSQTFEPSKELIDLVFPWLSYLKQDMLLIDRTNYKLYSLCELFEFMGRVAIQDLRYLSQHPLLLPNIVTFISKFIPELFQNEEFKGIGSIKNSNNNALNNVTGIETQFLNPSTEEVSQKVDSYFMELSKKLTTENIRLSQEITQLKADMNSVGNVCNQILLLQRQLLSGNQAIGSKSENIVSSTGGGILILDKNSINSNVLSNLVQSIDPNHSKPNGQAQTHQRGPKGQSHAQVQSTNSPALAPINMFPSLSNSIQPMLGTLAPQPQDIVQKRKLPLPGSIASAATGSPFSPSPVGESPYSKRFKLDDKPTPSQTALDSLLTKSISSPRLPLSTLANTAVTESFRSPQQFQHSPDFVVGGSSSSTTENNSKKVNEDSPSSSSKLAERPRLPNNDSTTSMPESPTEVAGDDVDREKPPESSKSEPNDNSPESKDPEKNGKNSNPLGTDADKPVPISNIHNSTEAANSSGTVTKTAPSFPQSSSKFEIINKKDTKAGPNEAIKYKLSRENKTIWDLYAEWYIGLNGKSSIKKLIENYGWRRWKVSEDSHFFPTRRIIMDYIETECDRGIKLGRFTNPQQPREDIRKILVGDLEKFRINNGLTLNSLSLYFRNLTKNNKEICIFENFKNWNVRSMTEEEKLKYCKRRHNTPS
Summary of the method: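 GST-tagged yeast TFs (full-length or DNA-binding domain) were made by PURExpress in vitro transcription/translation and applied at about 100-200 nM to universal all-10-mer Agilent arrays. The arrays were made double-stranded by primer extension, on fresh or once-stripped slides. Bound protein was detected with fluorescent anti-GST, and scans were normalised with masliner. Each ungapped eight-base word, pooled with its reverse complement, received an E-score (modified Wilcoxon-Mann-Whitney statistic) from the Universal PBM Analysis Suite.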
CCAAACCG was tested, and the “PBM E-score” value was -0.187.
For ATGCGCCA, the “PBM E-score” value was -0.0816.
With AGACGTTC the “PBM E-score” value was -0.0127.
ATCTGGGC was tested, and the “PBM E-score” value was 0.11.
In the case of ATTCTGCA, the “PBM E-score” value is reported as 0.045.
For GCTCCGAC, the “PBM E-score” value was -0.0658.
In the case of AGCGCGAT, the “PBM E-score” value is reported as 0.0213.
With ATTGTGGG the “PBM E-score” value was 0.166.
For GCAGTCCA, the “PBM E-score” value was 0.0322.
For ACGGTTCC, the “PBM E-score” value was 0.0629.
In the case of GACCGCAC, the “PBM E-score” value is reported as -0.00683.
With CTTATCGC the “PBM E-score” value was 0.0894.
In the case of TGGCACCA, the “PBM E-score” value is reported as 0.321.
For CTAATGCA, the “PBM E-score” value was -0.11.
With ATAAACCG the “PBM E-score” value was -0.241.
CACGTCTC was tested, and the “PBM E-score” value was -0.0829.
For GGGCGCCC, the “PBM E-score” value was 0.459.
CGTCGGAG was tested, and the “PBM E-score” value was -0.0234.
For CATGCTAA, the “PBM E-score” value was -0.0114.
GACGCTCC was tested, and the “PBM E-score” value was 0.278.
With GTAGCCGA the “PBM E-score” value was 0.123.
For CACCTGCA, the “PBM E-score” value was -0.222.
For ACAGACGC, the “PBM E-score” value was 0.227.
With ACCCTTTC the “PBM E-score” value was -0.208.
With GAACGTGA the “PBM E-score” value was -0.256.
With GCCTCGTA the “PBM E-score” value was 0.0832.
In the case of GAATAACC, the “PBM E-score” value is reported as 0.0068.
ATGCTGAG was tested, and the “PBM E-score” value was -0.0367.
For CAACGCAG, the “PBM E-score” value was -0.0728.
For AACCGACC, the “PBM E-score” value was -0.208.
For ACACACGG, the “PBM E-score” value was 0.065.
GCCTGAAA was tested, and the “PBM E-score” value was 0.111.
GCGCACCC was tested, and the “PBM E-score” value was -0.0278.
AGCGATGA was tested, and the “PBM E-score” value was 0.0633.
ATGAGAAA was tested, and the “PBM E-score” value was 0.0875.
For TAAGACGA, the “PBM E-score” value was -0.189.
For CAGGTTTA, the “PBM E-score” value was 0.127.
With CCGCCTGA the “PBM E-score” value was 0.0374.
ATGAGCAT was tested, and the “PBM E-score” value was -0.269.
With ACTGGTCT the “PBM E-score” value was 0.0339.
With CGCAGTTA the “PBM E-score” value was 0.15.
AATAAGCC was tested, and the “PBM E-score” value was -0.0577.
In the case of CGGGACCG, the “PBM E-score” value is reported as -0.00477.
GAATCACC was tested, and the “PBM E-score” value was -0.12.
With GTATCGCA the “PBM E-score” value was -0.00444.
For CCCGCACG, the “PBM E-score” value was -0.0595.
ACCTAGGT was tested, and the “PBM E-score” value was -0.0409.
AGTGAAAA was tested, and the “PBM E-score” value was 0.0932.
With CCGCTGAC the “PBM E-score” value was 0.0129.
CAGATATC was tested, and the “PBM E-score” value was -0.0224.
With ACGGTGCC the “PBM E-score” value was 0.276.
ACAAAGTC was tested, and the “PBM E-score” value was -0.195.
For AGTGTCAA, the “PBM E-score” value was -0.0244.
For ACTAGACT, the “PBM E-score” value was -0.00689.
In the case of GATTACCA, the “PBM E-score” value is reported as -0.04.
AAAGTAGT was tested, and the “PBM E-score” value was -0.0261.
For CATTAGGG, the “PBM E-score” value was 0.0812.
With AGACGCCT the “PBM E-score” value was 0.327.
For ACGTAGTG, the “PBM E-score” value was 0.0731.
AGAAACAG was tested, and the “PBM E-score” value was 0.0922.
In the case of CAGAGTGG, the “PBM E-score” value is reported as 0.0919.
With ATCCCAAA the “PBM E-score” value was 0.275.
For TCAATCGA, the “PBM E-score” value was -0.0191.
With CCTACTAC the “PBM E-score” value was -0.0926.
ATTGCCCC was tested, and the “PBM E-score” value was -0.111.
CCAGGCCC was tested, and the “PBM E-score” value was -0.171.
For AACTACTA, the “PBM E-score” value was 0.288.
In the case of GCGTCAGA, the “PBM E-score” value is reported as -0.0739.
In the case of GCCGATTA, the “PBM E-score” value is reported as 0.0443.
In the case of ACATCACA, the “PBM E-score” value is reported as -0.173.
In the case of CTGACAAG, the “PBM E-score” value is reported as -0.0579.
With GGAACCCC the “PBM E-score” value was 0.394.
With CTGTCAAG the “PBM E-score” value was 0.0757.
In the case of CCTCAAAA, the “PBM E-score” value is reported as 0.195.
In the case of GCTTTACC, the “PBM E-score” value is reported as -0.157.
With ATGAGTAC the “PBM E-score” value was 0.0538.
With CCTAGGTC the “PBM E-score” value was -0.17.
In the case of CCTCGTAC, the “PBM E-score” value is reported as 0.0467.
With AACTTTTA the “PBM E-score” value was 0.249.
With TAACTGGA the “PBM E-score” value was 0.225.
In the case of GCCGTGCA, the “PBM E-score” value is reported as -0.047.
With GGCCTACC the “PBM E-score” value was -0.171.
For ATCAAAAG, the “PBM E-score” value was 0.0248.
For AGGCCAGG, the “PBM E-score” value was -0.25.
In the case of CTAATATA, the “PBM E-score” value is reported as 0.132.
AAGACGCC was tested, and the “PBM E-score” value was 0.349.
